Data published in US20260258125A1.

Target: antigen of the anti-CEACAM5/6 antibodies on HPAC cells
Assay: cell-based or functional assay

Internalization of pHAb-dye-labelled antibody, MFI (37° C.-4° C.)/DAR: 130000
B1: PR304294 (antibody, human IgG1, kappa)
heavy: EVQLLESGGGLVQPGGSLRLSCAASGFTFSSYAMSWVRQAPGKGLEWVSAISGTTYNTYYAGSVKGRFTISRDNSKNTLYLQMNSLRAEDTAVYYCAKGISVAGYYYYGMDVWGQGTTVTVSS[letters of human IgG1 constant region omitted]
light: EIVMTQSPATLSVSPGERATLSCRASQSVISNLAWYQQKPGQAPRLLIYGASTRATGIPARFSGSGSGTEFTLTISSLQSEDFAVYYCHQYNNWPLTFGGGTKVEIKRTVAAPSVFIFPPSDEQLKSGTASVVCLLNNFYPREAKVQWKVDNALQSGNSQESVTEQDSKDSTYSLSSTLTLSKADYEKHKVYACEVTHQGLSSPVTKSFNRGEC
